Experimental data reported in the RNAGym collection of RNA variant scans (doi:10.1093/nar/gkz1192).
The source gives no read counts; variants with many changes may rest on few reads.

B1: CPEB3 Ribozyme (parent)
chain: UAACAGGGGGCCACAGCAGAAGCGUUCACGUCGCAGCCCCUGUCAGAUUCUGGUGAAUCUGCGAAUUCUGCUGUAUAUCUC

Variants of: B1
Assay: self-cleavage, relative activity (ratio to wild type); higher = more cleavage; in vitro, sequencing
How it was run: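 Barcoded CPEB3 ribozyme mutants, produced by rounds of error-prone PCR, self-cleaved while being transcribed with T7 RNA polymerase for 5 hours at 37°C and during a subsequent 15 min DNase I step before EDTA was added. Sequencing of template-switched cDNA on Illumina gave cleaved and total reads, and DNA sequencing assigned barcodes to variants. Each variant's relative activity is its cleaved/total read fraction divided by the unmutated ribozyme's fraction, averaged across three batches. A variant needed a minimum of 5 reads.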

Question: With UAACAGGGGGCCACAGCAGAAGCGUUCACGUCGCAGCACCUGUCAGGUUCUGGUGGAUCUGCGAAUUCUGCUGUAUAUCUC [C38A A47G A56G] as the variant, how does the self-cleavage read?
Answer: Its self-cleavage is 0.18.

Question: With UAACAGGGGGCCACAGCAGAAGCGUUCACGUCGCAGUCCCUGUCAGAUUCUGGGGAAUCUGCGGAUUCUGCUGCAUAUCUC [C37U U54G A64G U74C] as the variant, how does the self-cleavage read?
Answer: Its self-cleavage is 0.31.

Question: For UAACAGGGGGCCACAGCAGAAGCGUUCACGUCGCAUCCCCUGUCAGAUUCUGGGGAAUCUGCGAGUUCUGCUGUAUAUCUC [G36U U54G A65G], which self-cleavage is on record?
Answer: The self-cleavage was 0.35.

Question: For UAACAGGGGGCCACAGCAGAAGCGUUCACGUCGCAUCCCCUGUCAGAUUCUGGUGAAUCCGCCAAUUCUGCCGUAUAUCUC [G36U U60C G63C U72C], which self-cleavage is on record?
Answer: The self-cleavage was 0.11.

Question: With UAACAGGGGGCCACAGCAGAAGCGUUCACGUCGCAGCCACCGUCAGAUUCUGGUGAAUCUGCGAAUUCCGCUGUAUAUCUC [C39A U41C U69C] as the variant, how does the self-cleavage read?
Answer: Its self-cleavage is 0.36.

Question: With UAACAGGGGGCCACAGCAGAAGCGUUCACGUCGCAGUCCCCGUCAGAUUCUGGUGGAUCUGCGAAUUCCGCCGUAUAUCUC [C37U U41C A56G U69C U72C] as the variant, how does the self-cleavage read?
Answer: Its self-cleavage is 0.08.

Question: Which self-cleavage does the source give for UAACAGGGGGCCACAGCAGAAGCGUUCACGUCGCAGACCCUGUCAGAUUCUGGUGAAUCUGCGAAUUCUGCUGCUUAUCUC [C37A U74C A75U] here?
Answer: The self-cleavage was 0.23.

Question: Which self-cleavage does the source give for UAACAGGGGGCCACAGCAGAAGCGUUCACGUCGCAUCCCCAGUCAGAUUCUGGUGAAUCUGCGAAUUCUGCUGUGUAUCUC [G36U U41A A75G] here?
Answer: Its self-cleavage is 0.07.

Question: With UAACAGGGGGCCACAGCAGAAGCGUUCACGUCGCAUCCCCAGUCAGAUUCUGGUGAAUCUGCGAAUUCUGCUGUUUAUCUC [G36U U41A A75U] as the variant, how does the self-cleavage read?
Answer: Its self-cleavage is 0.14.

Question: For UAACAGGGGGCCACAGCAGAAGCGUUCACGUCGCAGUCCAUGUCAGAUUCUGGUGAAUCUGCGAAUUCUGCCGAAUAUCUC [C37U C40A U72C U74A], which self-cleavage is on record?
Answer: Its self-cleavage is 0.17.

Question: For UAACAGGGGGCCACAGCAGAAGCGUUCACGUCGCAGUCCCUGCCAGAUUCUGGUGAAUCUGCGAAUUCAGCAGUAUAUCUC [C37U U43C U69A U72A], which self-cleavage is on record?
Answer: Its self-cleavage is 0.06.

Question: For UAACAGGGGGCCACAGCAGAAGCGUUCACGUCGCAGCGCCUGCCAGAUUCUGGUGAAUCUGCGAAUUCCGCUGUAUAUCUC [C38G U43C U69C], which self-cleavage is on record?
Answer: Its self-cleavage is 0.11.

Question: With UAACAGGGGGCCACAGCAGAAGCGUUCACGUCGCAUCCCCUGUCAGAUUCUGGUGAAUCUGCGAAUUCCGCUGUGUAUCUC [G36U U69C A75G] as the variant, how does the self-cleavage read?
Answer: Its self-cleavage is 0.1.

Question: With UAACAGGGGGCCACAGCAGAAGCGUUCACGUCGCAGCACGUGUCUGAUUCUGGUGAAUCUGCGAAUUCGGCUGCAUACCUC [C38A C40G A45U U69G U74C U78C] as the variant, how does the self-cleavage read?
Answer: The self-cleavage was 0.07.

Question: With UAACAGGGGGCCACAGCAGAAGCGUUCACGUCGCAGCUCCCGUCAGAUUCUGGUGAAUCUGCGGAUUCUGCUGUAUAUCUC [C38U U41C A64G] as the variant, how does the self-cleavage read?
Answer: Its self-cleavage is 0.46.

Question: Which self-cleavage does the source give for UAACAGGGGGCCACAGCAGAAGCGUUCACGUCGCAGCCACUGUCAGAUUCUGGUGAAUCUGCGAAUUCGGCUGUAUAACUC [C39A U69G U78A] here?
Answer: The self-cleavage was 0.09.

Question: Which self-cleavage does the source give for UAACAGGGGGCCACAGCAGAAGCGUUCACGUCGCAGCGCCAGUCUGAUUCUGGUGAAUUUGCGAAUCCAGCUGUAGAUCUC [C38G U41A A45U C59U U67C U69A U76G] here?
Answer: Its self-cleavage is 0.17.

Question: With UAACAGGGGGCCACAGCAGAAGCGUUCACGUCGCAGCUCCUGUCGGAUCCUGGUGAGUCUGCGAAUUCUGCUGUAUUUCUC [C38U A45G U49C A57G A77U] as the variant, how does the self-cleavage read?
Answer: The self-cleavage was 0.1.

Question: For UAACAGGGGGCCACAGCAGAAGCGUUCACGUCGCAGCCACUGUCAGGUUCUGGUGAAUCUGCAAAUUCUGCUGUAUAUCUC [C39A A47G G63A], which self-cleavage is on record?
Answer: The self-cleavage was 0.2.

Question: With UAACAGGGGGCCACAGCAGAAGCGUUCACGUCGCAGUCCCUGUCGGAUUCUGGUGAAUCUGCGAAUUCUGCUGUAUUUCUC [C37U A45G A77U] as the variant, how does the self-cleavage read?
Answer: The self-cleavage was 0.68.

Question: Which self-cleavage does the source give for UAACAGGGGGCCACAGCAGAAGCGUUCACGUCGCAGCUCCUGCCAGAUUCUGGUGAAUCUGCGAAUUCUGCUGUACAUCUC [C38U U43C U76C] here?
Answer: The self-cleavage was 0.42.

Question: For UAACAGGGGGCCACAGCAGAAGCGUUCACGUCGCAGCACCUGCCAGAUUCGGGUGAAUCUGCGUAUUCUGCUGUAUAUCUC [C38A U43C U51G A64U], which self-cleavage is on record?
Answer: The self-cleavage was 0.06.

Question: Which self-cleavage does the source give for UAACAGGGGGCCACAGCAGAAGCGUUCACGUCGCAGCCACUGUCGGAUUCUGGUGAAUCUGCGAAUACCGCUGUAUAUCUC [C39A A45G U67A U69C] here?
Answer: The self-cleavage was 0.05.

Question: With UAACAGGGGGCCACAGCAGAAGCGUUCACGUCGCAGUCCCCGUCAGAUUCUGGUGAAUCUGCGAAUUCUGCUGCAUAUCCC [C37U U41C U74C U80C] as the variant, how does the self-cleavage read?
Answer: Its self-cleavage is 0.86.

Question: With UAACAGGGGGCCACAGCAGAAGCGUUCACGUCGCAGACCCUGUCAGACUCUGGUGAAUCUUCGAAUUCUGCUGUAUAUCUC [C37A U48C G61U] as the variant, how does the self-cleavage read?
Answer: Its self-cleavage is 0.4.

Question: Which self-cleavage does the source give for UAACAGGGGGCCACAGCAGAAGCGUUCACGUCGCAGCACCCGUCAGAUUCUGGCGGAUCUGCGAAUACUGCAGUAUAUCUC [C38A U41C U54C A56G U67A U72A] here?
Answer: Its self-cleavage is 0.15.

Question: With UAACAGGGGGCCACAGCAGAAGCGUUCACGUCGCAGCUCCUGUCAGAUUCUGGUGAUUCCGCGAGUUCUGCUGUAUUUCUC [C38U A57U U60C A65G A77U] as the variant, how does the self-cleavage read?
Answer: The self-cleavage was 0.12.

Question: With UAACAGGGGGCCACAGCAGAAGCGUUCACGUCGCAGCCACCGUCAGAUUCUGGUGAGUCUGCGAAUUCGGCUGUAUAUCUC [C39A U41C A57G U69G] as the variant, how does the self-cleavage read?
Answer: The self-cleavage was 0.1.

Question: Which self-cleavage does the source give for UAACAGGGGGCCACAGCAGAAGCGUUCACGUCGCAGCUCCUGUCAGAUUCUGGUGGGUCUGCGGAUUCUGCUGUAUAUCUC [C38U A56G A57G A64G] here?
Answer: Its self-cleavage is 0.26.

Question: Which self-cleavage does the source give for UAACAGGGGGCCACAGCAGAAGCGUUCACGUCGCAGCCGCAGUCCGAUUCUGGAGAAUCUGCGAGUUCUGCUGUAUAUCUC [C39G U41A A45C U54A A65G] here?
Answer: The self-cleavage was 0.09.

Question: For UAACAGGGGGCCACAGCAGAAGCGUUCACGUCGCAGCAUCAGUCAGAUCCUGGUGAAUCUGCGAAUUCUGCUGUAUAUCUC [C38A C39U U41A U49C], which self-cleavage is on record?
Answer: Its self-cleavage is 0.09.

Question: Which self-cleavage does the source give for UAACAGGGGGCCACAGCAGAAGCGUUCACGUCGCAGCGCCUGUCAGAUUCUGGAGAAUCUGCGAAUUCUGCUGUACAUCUC [C38G U54A U76C] here?
Answer: Its self-cleavage is 0.13.

Question: For UAACAGGGGGCCACAGCAGAAGCGUUCACGUCGCAGCGCCUGUCAGAUUCUGGUGAAUCAGCGAAUUCUGCUGUAUAUCGC [C38G U60A U80G], which self-cleavage is on record?
Answer: The self-cleavage was 0.04.

Question: For UAACAGGGGGCCACAGCAGAAGCGUUCACGUCGCAGCACCUGUCAGAUUCUGGUGUAUCUGCGAAUUCUGCUGUAUGUCUC [C38A A56U A77G], which self-cleavage is on record?
Answer: Its self-cleavage is 0.16.
